Measurements reported in the RNAGym collection of RNA variant scans (doi:10.1073/pnas.2313332121).
This sample is rich in variants without activity.

B1: TPR 5TU (parent)
chain: GGAUCUUCUCGAUCUAACAAAAAAGACAAAUCUGCCACAAAGCUUGAGAGCAUCUUCGGAUGCAGAGGCGGCAGCCUUCGGUGGCGCGAUAGCGCCAACGUUCUCAACUAUGACACGCAAAACGCGUGCUCCGUUGAAUGGAGUUUAUCAUG

Variants of: B1
Experiment: polymerase ribozyme fitness, log enrichment relative to wild type (log ratio); higher = more active; in vitro selection for triplet polymerase activity
Outline: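 Genotype fitness is the logarithm of its enrichment divided by wild-type enrichment, using inverse-variance-weighted averages of replicates. That logarithm is base 2. Enrichment was measured by Illumina sequencing of input and output libraries from one triplicate in vitro selection round, with frozen incubation at −7 °C, on PCR-built, transcribed mutant libraries of each subunit of a heterodimeric triplet polymerase ribozyme, retaining genotypes with ≥10 input reads and ≥1 read per output.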

| Variant | polymerase ribozyme fitness (log ratio) |
| --- | --- |
| A28C U56A C57A G68A C76A G88U G94A A138C | ≤ -4.2 |
| A28C C43A G59A C95A | ≤ -4.2 |
| A28G A40U C69A C85U U102G G152C | ≤ -4.2 |
| A28G A39C G58A U61A C93A G140C | ≤ -4.2 |
| A28U C32G A41U A73G C85G G88U G136A | ≤ -4.2 |
| A28U C36A G50C U55A A66U C95G U109C A110C U127G | ≤ -4.2 |
| A29C A39U G74C C76A C132A | ≤ -4.2 |
| A29C A49C C57G C132U | ≤ -4.2 |
| A28U C36U C85A A147U | ≤ -4.2 |
| A28U U53A U77C G80C A120G U151G | ≤ -4.2 |
| A28C C35A C85U U134G | ≤ -4.2 |
| A28G C93U G124U C149G | ≤ -4.2 |
| A29C A37C A60U C85A G117A G133U | ≤ -4.2 |
| A28C U53A U56A A137G U148A | ≤ -4.2 |
| A28U C51U C93G A120C G140A | ≤ -4.2 |
| A28C G34C A98G C99G C105U | ≤ -4.2 |
| A28U G58U A91U C103U U104G A121U G141C | ≤ -4.2 |
| A29C A49U A52C C54A A89C C123A U135G G140C | ≤ -4.2 |
| A28U C87U U134A | ≤ -4.2 |
| A28U A52U C93U C95A U102A C125G U134C G141U | ≤ -4.2 |
| A28G G65C | ≤ -4.2 |
| A28U A30G C38U U56A A64U A107G | ≤ -4.2 |
| A28G C54U U55A G67U G80C A121G A147G | ≤ -4.2 |
| A28U C35U C87G A97U C103A G140A | ≤ -4.2 |

| Variant | polymerase ribozyme fitness (log ratio) |
| --- | --- |
| A28U G50A U55C U139G | ≤ -4.2 |
| A28U A40C A52G C85A C129G | ≤ -4.2 |
| A28U A49C U61A G92A A113G C149G | ≤ -4.2 |
| A28U A29G G88U G128A C131A | ≤ -4.2 |
| A28U A73U C95U U134A | ≤ -4.2 |
| A28U A39U A52G A73C C96U C105U C129A | ≤ -4.2 |
| A28U A66C C72U A91C C114U | ≤ -4.2 |
| A28G U53G C85A U104G A106G A138U A147G | ≤ -4.2 |
| A28U C54A G83A A121U | ≤ -4.2 |
| A28U G42C U44C C75G C96A A115G | ≤ -4.2 |
| A28C C35A A39U G84A C103G U145A | ≤ -4.2 |
| A29C A40U A41C G84A G141A | ≤ -4.2 |
| A28U G62A G65A G94A G136A | ≤ -4.2 |
| A28G C63G C96A C116U | ≤ -4.2 |
| A28G G94A | -3.42 |
| A28G G140A | -4.13 |
| A28U C35G C54A C79A G80C A89C G94A | ≤ -4.2 |
| A29C A47U A60U C63G A115U A137C | ≤ -4.2 |
| A28C C54G C116U | ≤ -4.2 |
| A28C C85A | ≤ -4.2 |
| A28U A47G C85A G117U U144G | ≤ -4.2 |
| A28U U61A C79G C87G | ≤ -4.2 |
| A28U C87A U144A | ≤ -4.2 |
| A28U C54U G68A A97U C108A | ≤ -4.2 |

| Variant | polymerase ribozyme fitness (log ratio) |
| --- | --- |
| A28U U104A | ≤ -4.2 |
| A28G C32G G84A C85G A115U G141C | ≤ -4.2 |
| A28U U53A G81C C95G A107U U139A | ≤ -4.2 |
| A28U C54A C69A G84A A97U U151G | ≤ -4.2 |
| A28C C75U C85G | ≤ -4.2 |
| A28U A30U U33G G58C G141U | ≤ -4.2 |
| A28C C36A C93G A142C U145C | ≤ -4.2 |
| A28U C103A A147C | ≤ -4.2 |
| A28G U55A | -2.49 |
| A28U U61G C75G A91G G100C C105U A110G | ≤ -4.2 |
| A28U C36G C95U G100U | ≤ -4.2 |
| A28C U53A U109G G152A | ≤ -4.2 |
| A28G U33G A49C A52G C85A U139C | ≤ -4.2 |
| A28G C36G C38U G81A C103A G141A | ≤ -4.2 |
| A28C C87A C96A C99G C125U G140C | ≤ -4.2 |
| A28C G50U C85U G92A C95U G143A U144A | ≤ -4.2 |
| A28U A39U A47U C79G C87U U135G G140C | ≤ -4.2 |
| A28C C51U C57A A73U C87G U101G A121U | ≤ -4.2 |
| A28G U53A G84A U111C | ≤ -4.2 |
| A28G G88U A89C C116U | ≤ -4.2 |
| A28U G84U | ≤ -4.2 |
| A28C G88C G117U A119U | ≤ -4.2 |
| A28G G50C G81C C95G C96U A98C A113U G143U | ≤ -4.2 |
| A28C C36G U56G G83U A107U C132U G152A | ≤ -4.2 |

| Variant | polymerase ribozyme fitness (log ratio) |
| --- | --- |
| A28G C79G | ≤ -4.2 |
| A28G C116U | -3.63 |
| A28U G50C A66C G86U A106U | ≤ -4.2 |
| A28C A49G C63U A113U A115C | ≤ -4.2 |
| A28U A30C U53G A64U C118U | ≤ -4.2 |
| A28U U55C C96A | ≤ -4.2 |
| A29C A41C G46U G68U C85U C87A A107U | ≤ -4.2 |
| A28U A29U A52G C76U G83C C93G C132U | ≤ -4.2 |
| A28G G42C C43A U55A | ≤ -4.2 |
| A28C A98U | ≤ -4.2 |
| A28U U33A C69G C72A U78G C79U G83A | ≤ -4.2 |
| A29C A41U G83A A138U | ≤ -4.2 |
| A28U A64G A137U A138C U144A C149A | ≤ -4.2 |
| A28G C75A U78A G94C G141A U146G | ≤ -4.2 |
| A28U G86U C132G A147U | ≤ -4.2 |
| A28U C38U G50C C72U G80A C116U | ≤ -4.2 |
| A28U C96A | -3.93 |
| A28U A106G C116G | ≤ -4.2 |
| A28G C35U A97G C103A C105U U134C A150U G152A | ≤ -4.2 |
| A28G A41G A89G G136A | ≤ -4.2 |
| A28C U61A U134A U148C | ≤ -4.2 |
| A28G G59U G68A C75A C85A G92U C93A G117A | ≤ -4.2 |
| A28C U53G G58A C76A G83U U90G | ≤ -4.2 |
| A28U C51U C93U | ≤ -4.2 |

| Variant | polymerase ribozyme fitness (log ratio) |
| --- | --- |
| A28U G58U C79G G92U | ≤ -4.2 |
| A28C G117U | ≤ -4.2 |
| A28G C36U C54A G59C G86A A119C | ≤ -4.2 |
| A28G U31C U45A A98U | ≤ -4.2 |
| A28U U53G A66G C69A C79G G94C C108G C129U A137U | ≤ -4.2 |
| A28U U56A G81A C95U | ≤ -4.2 |
| A28U A60G A66U A91U A107G C125G U135C | ≤ -4.2 |
| A28G C38U G48C C75A C87G C125U U134A A150U | ≤ -4.2 |
| A28U G50U C79G U90G A137G | ≤ -4.2 |
| A28U A52C C99U G112C G136U | ≤ -4.2 |
| A29C A49U G50C A119U | ≤ -4.2 |
| A28C G46C G84A C85U | ≤ -4.2 |
| A28U A47G C96U C103G | ≤ -4.2 |
| A28C A52U A91U C95U A106G A121C | ≤ -4.2 |
| A28C U53A G58C A91G U146C | ≤ -4.2 |
| A28U G50A C85G | ≤ -4.2 |
| A29C A30C G65A C93U | ≤ -4.2 |
| A28U A49U U139G | ≤ -4.2 |
| A28U A40U A49U | ≤ -4.2 |
| A28C C75A G92A C108G | ≤ -4.2 |
| A28G A49G G50A C87G | ≤ -4.2 |
| A29C A49C A52G G83U G100A U135G | ≤ -4.2 |
| A28G C93A | ≤ -4.2 |
| A28C A52C C85A G86A G88A G94U C114U | ≤ -4.2 |

| Variant | polymerase ribozyme fitness (log ratio) |
| --- | --- |
| A28C U56A C96A U102G A110U | ≤ -4.2 |
| A28G C32G G84U C93A G136U | ≤ -4.2 |
| A28U G48C C76U G83A G94A A106G | ≤ -4.2 |
| A28U C54U C87G G133A | ≤ -4.2 |
| A28C U55A C75G | ≤ -4.2 |
| A28U A30C A41U A49C C85A G117C C118G C149A | ≤ -4.2 |
| A29C A52U U53A U56G C57G A142C | ≤ -4.2 |
| A28U A64U C69U C85U U135A | ≤ -4.2 |
| A28U G50C G83C A110C | ≤ -4.2 |
| A28C U77A G83U C99G C105G A120U U134A | ≤ -4.2 |
| A28C U45A U56A G58U A60G G92U | ≤ -4.2 |
| A28U C54U C63U G71U C108U C114U A137U U139G A150G | ≤ -4.2 |
| A28G G83C | -4.1 |
| A28U G48C A52C G67A C69G C93A | ≤ -4.2 |
| A29C A30U A97U C103U C116G G133A | ≤ -4.2 |
| A28U U53C C105G A106G | ≤ -4.2 |
| A28U A52C A97U A137U U139C | ≤ -4.2 |
| A28U G50U G59A | ≤ -4.2 |
| A28U G58A C95U C105G G136U | ≤ -4.2 |
| A28C G81A U90C A150G | ≤ -4.2 |
| A28C U44A A64C U77C G84U G141C | ≤ -4.2 |
| A28U U31G | ≤ -4.2 |
| A28U C35U | -4.12 |
| A28U A39C A98G G143U U144G U146G | ≤ -4.2 |

| Variant | polymerase ribozyme fitness (log ratio) |
| --- | --- |
| A28U C57G C85G G92A A115C | ≤ -4.2 |
| A28C C57U G59A U78G G86A A115U | ≤ -4.2 |
| A28U G62U G68A G80C G83A | ≤ -4.2 |
| A28U A37U U139A | ≤ -4.2 |
| A28C C32G G46C C51U A122C | ≤ -4.2 |
| A28G A29U C87G C96A | ≤ -4.2 |
| A28C U61A G88A | ≤ -4.2 |
| A28C C36U A39U U55A A66U C79U A91U C93A | ≤ -4.2 |
| A28C G140U | ≤ -4.2 |
| A28G U55A A98U C123U | ≤ -4.2 |
| A29C A30U U82A G84A C123U U127C C149G | ≤ -4.2 |
| A28U C38A A52U C85A C114A | ≤ -4.2 |
| A28U C72U | ≤ -4.2 |
| A28G G84U G133C | ≤ -4.2 |
| A28C C54U G94C A97G | ≤ -4.2 |
| A28C C57G G88C C116U A142G | ≤ -4.2 |
| A28C G42C C76G C79G G86C U90G A97G U145C | ≤ -4.2 |
| A28U G48U A49G C54A U55A A107C A113U | ≤ -4.2 |
| A28C A52U C87G A110U A138G | ≤ -4.2 |
| A28C U53A C93U | ≤ -4.2 |
| A29C A47G G50C C54U C95U G126A A142U | ≤ -4.2 |
| A29C A49G U77C C85G | ≤ -4.2 |
| A28C C87G C99A U148C | ≤ -4.2 |
